Variants at the background level are over-represented here.
B1: glmS ribozyme (parent)
chain: AUAAAAGCGCCAGAACUACAGAAAUGUAGUUGACGAGGAGGAGGUUUAUCGAAUUUUCGGCGGAUGCCUCCAAA

Experiments:
Conditions in all cases: with glucosamine-6-phosphate
glucosamine-6-phosphate [1] = variants of: B1; test: self-cleavage kobs at 40 uM GlcN6P; higher = faster cleavage; RNA array
In short: (§1)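 Glucosamine-6-phosphate, from 40 μM to 10 mM in HEPES/KCl/Mg(OAc)2 buffer, was flowed over sequenced MiSeq chips carrying barcoded ribozyme variants transcribed in situ by E. coli RNA polymerase. A hybridised Cy3 probe tracked the variants at 37 °C as tiles were imaged over ~14 h. kobs, kcat and KM were obtained by fitting normalised per-tile medians to exponential decays and then applying weighted Michaelis–Menten fits across concentrations.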

glucosamine-6-phosphate [2] = variants of: B1; test: self-cleavage kobs at 640 uM GlcN6P; higher = faster cleavage; RNA array
In short: as §1

glucosamine-6-phosphate [3] = variants of: B1; test: self-cleavage kobs at 2500 uM GlcN6P; higher = faster cleavage; RNA array
In short: as §1

glucosamine-6-phosphate [4] = variants of: B1; test: self-cleavage kobs at 10000 uM GlcN6P; higher = faster cleavage; RNA array
In short: as §1

glucosamine-6-phosphate [5] = variants of: B1; test: self-cleavage kobs at 160 uM GlcN6P; higher = faster cleavage; RNA array
In short: as §1

Row | Variant | self-cleavage kobs at 40 uM GlcN6P (glucosamine-6-phosphate [1]) [s⁻¹] | self-cleavage kobs at 640 uM GlcN6P (glucosamine-6-phosphate [2]) [s⁻¹] | self-cleavage kobs at 2500 uM GlcN6P (glucosamine-6-phosphate [3]) [s⁻¹] | self-cleavage kobs at 10000 uM GlcN6P (glucosamine-6-phosphate [4]) [s⁻¹] | self-cleavage kobs at 160 uM GlcN6P (glucosamine-6-phosphate [5]) [s⁻¹]
1 | AUAAAAACGCCAGAUCUACAGAAAUGUAGUUGACGAGGAGGAGGUUUAUCGAAUUUUAGGCGGAUGCCUCCAAA [G7A A15U C58A] | < 1e-05 | < 1e-05 | < 1e-05 | < 1e-05 | –
2 | AUAAAUGCGCCAGAACUACAGAAAUGUAAUUGACGAGGAGGAGGUUUAUCGAAUUUUCGGUGGAUGCCUCCAAA [A6U G29A C61U] | < 1e-05 | < 1e-05 | < 1e-05 | < 1e-05 | –
3 | AUAAAUCCGCCAGAACUACAGAAAUGUAGUGGACGAGGAGGACGGUUAUCGAAUUUUCGGCGGAUGCCUCCAAA [A6U G7C U31G G43C U45G] | < 1e-05 | – | – | – | –
4 | AUAAAUGCGCCAGAAUUACAGAAAUGUAGUUGACGAGGAGGAGGUUUAUCGAAUUUUCGGCGGUUGCCUCCAAA [A6U C16U A64U] | < 1e-05 | – | – | – | –
5 | AUAAAUGCGCAAGAACUACAGAAAUGUAGGUGACGAGGAGGAGGUUUAUCGAAUUUUCGGCGAAUAGCUCCAAA [A6U C11A U30G G63A G66A C67G] | < 1e-05 | – | – | – | –
6 | AUAAAUGCGCCAGAACUACAGAAAUGUAGUUGACGAGGAGGAGGUUUAUCGAAUUUUCGGUGGAUGCCUCCAAA [A6U C61U] | < 1e-05 | < 1e-05 | < 1e-05 | < 1e-05 | –
7 | AUAAAUGCGCCAUAAUUACAGAAAUGUAGUUGACGGGGAGGAGGUUUAUCGAAUUUUCGGCGGAUGCCUCCAAA [A6U G13U C16U A36G] | < 1e-05 | – | – | < 1e-05 | –
8 | AUAAAUUCGCCAGAACUACAGAAAUGUAGUUGUCGAUGAGGAGCUUUAGCGAAUUUUCGGCGGUUGCCUCCAAA [A6U G7U A33U G37U G44C U49G A64U] | < 1e-05 | – | – | – | –
9 | AUAAAAACGCCAGAACUACAGAAAUGUAGUUGACGAGGAGGAGGUUUCUCGACUUUUCGGCGGAUGCCUCCAAA [G7A A48C A53C] | < 1e-05 | – | – | < 1e-05 | –
10 | AUAAAUGCGCCAGAACUACAGAAAUGUAGUUCACGAGGAGGAGGUUUAUCGUAUUUUCGGCGGAUGCCUCCAAA [A6U G32C A52U] | < 1e-05 | – | – | < 1e-05 | –
11 | AUAAAAACGCCAGAACUACAGAAAUGUAGUUGUCGAGGAGGAGGUUUAUUGAAUUUUCGGCGGAUGCCUCCAAA [G7A A33U C50U] | < 1e-05 | – | < 1e-05 | – | < 1e-05
12 | AUAAAUGCGCCACAACUACAGAAAUGUAGUUGACGAGGUGGAGGUGUUUCGAAUAUUCGGUGGAUGCCUCCAAA [A6U G13C A39U U46G A48U U55A C61U] | < 1e-05 | – | – | < 1e-05 | –
13 | AUAAAUGCGCCAGAAAUACAGAAAUGUAGUUGACGAGGAGGAGGUUUAUCGAAUUUUCGGCGGAUGCCUCCAAA [A6U C16A] | < 1e-05 | < 1e-05 | – | – | –
14 | AUAAAUGCGCCAGAACUACAGAAAUGUAGUUGACGAGGAGGAGGUUUAUCGAAUUUUCCGCGGAUGCCUCCAAA [A6U G59C] | < 1e-05 | < 1e-05 | < 1e-05 | < 1e-05 | < 1e-05
15 | AUAAAUGCGACAGAACUACAGAAAUGUAGUUGACGAGGAGGAGGUUUAUCGAAUUUUCGGCGGAUGCCUCCAAA [A6U C10A] | < 1e-05 | < 1e-05 | – | – | < 1e-05
16 | AUAAAAACGCCAGAACUACAGAAAUGUAGUUGACGAGGAGGAGGUUUAUCGUAUUUUCGGCGGAUGCCUCCAAA [G7A A52U] | < 1e-05 | < 1e-05 | < 1e-05 | < 1e-05 | < 1e-05

Row | Variant | self-cleavage kobs at 40 uM GlcN6P (glucosamine-6-phosphate [1]) [s⁻¹] | self-cleavage kobs at 640 uM GlcN6P (glucosamine-6-phosphate [2]) [s⁻¹] | self-cleavage kobs at 2500 uM GlcN6P (glucosamine-6-phosphate [3]) [s⁻¹] | self-cleavage kobs at 10000 uM GlcN6P (glucosamine-6-phosphate [4]) [s⁻¹] | self-cleavage kobs at 160 uM GlcN6P (glucosamine-6-phosphate [5]) [s⁻¹]
17 | AUAAAUGCGCCAGAACUACAGAAAUGUAGUUGACGAGGAGGAGGUUUAUCGAAUUUUCGGCGGAUGCCACCAAA [A6U U69A] | < 1e-05 | – | – | – | –
18 | AUAAAUGAGCCAGAACUACAGAAAUGUAGUUGACGAGGAGGAGGUUUAUCGAAUUUUCCGCGGAGGCCUCCAAA [A6U C8A G59C U65G] | < 1e-05 | – | – | – | –
19 | AUAAAAACGCCCGAACUACAGAAAUGUAGUUGACGAGGAGGCGGUUUAACGAAUUUUCGCCGGAUGCCUCCAAA [G7A A12C A42C U49A G60C] | < 1e-05 | – | – | < 1e-05 | –
20 | AUAAAUCGGCCAGAACUACAGAAAUGUAGUUGACGAGUAGGAGGUUUAUCGAAUUUUCGGCGGAUGCCUCCAAA [A6U G7C C8G G38U] | < 1e-05 | – | – | – | –
21 | AUAAAAACGGCAGAACUACAGAAAUGUAGUUGACGAGGAGGAGGUUUAUAGAAUUUUCCGCGGAUGCCCCCAAA [G7A C10G C50A G59C U69C] | < 1e-05 | – | – | < 1e-05 | –
22 | AUAAAUGCGCCAGAACUACAGAAAUGUAGUUGACGAGGAGAUGGUUUAUCGAAUUUUCGGCGGAUGCCUCCAAA [A6U G41A A42U] | < 1e-05 | – | – | – | –
23 | AUAAAAACGCCAGAACUACAGAAAUGUAGUUGACGAGGAGGAGGUUUAUCGGAUUUUCGGCGGAAGCCUCCAAA [G7A A52G U65A] | < 1e-05 | < 1e-05 | – | – | –
24 | AUAAAUGCGCCAGAACUACAGAAAUGUAGUUGACGAGGAGGAGAUUUAUCGAAUUUUCGGCGGAUGCCUCCAAA [A6U G44A] | < 1e-05 | < 1e-05 | < 1e-05 | < 1e-05 | < 1e-05
25 | AUAAAUCCGCCAGAACUACAGAAAUGUAGUUGACGAGGAGGAGGUUUAUUGAAUUUUCGGCGGAUGCCUCCAAA [A6U G7C C50U] | < 1e-05 | – | – | < 1e-05 | –
26 | AUAAAAAGCCCAGAACUACAGAAAUGUAGUUGACGAGGAGGAGGUUUAUCGAAUUUUCGGCGGAUGCCUUCAAA [G7A C8G G9C C70U] | < 1e-05 | – | – | – | < 1e-05
27 | AUAAAUGCGCCAGAACUACAGAAAUGUAGUUGACGAGGAGGAUAUUUAUCGAUUUUUCGGCGGAUGCCUCCAAA [A6U G43U G44A A53U] | < 1e-05 | – | – | – | –
28 | AUAAAUGCCCCAGAACUACAGAAAUGUAGUUGACGAGGAGGAGGUUUAUCGAAUUUUCGGCGGAUGCCUCCAAA [A6U G9C] | < 1e-05 | – | – | – | –
29 | AUAAAAACGCCAGAACUACAGAAAUGUAGUUGACGUGGAGGAGGUUUAUCGAAUUUUCUGCGGAUGCCUCCAAA [G7A A36U G59U] | < 1e-05 | – | – | < 1e-05 | –
30 | AUAAAAACGGCAGAACUACAGAAAUGUAGUUGACGAGGAGGAGGUUUAUCGAAUUUUCGGCGGAUGCCUCCAAA [G7A C10G] | < 1e-05 | < 1e-05 | < 1e-05 | < 1e-05 | < 1e-05
31 | AUAAAAAAGCCAGAACUACAGAAAUGUAGUUGACGAGGAGGAGGUUUAUCGAAUUUUCGGCGGAUGCCUCCAAA [G7A C8A] | < 1e-05 | < 1e-05 | < 1e-05 | < 1e-05 | < 1e-05

From the supplement of paper PMC7125110
